From the supplement of paper PMC11417369
The other results are listed elsewhere or left out.

System: PfAP2-HC AP2 domain (GST-tagged)
Experiment: gcPBM binding intensity (ln(normalized median fluorescence intensity)); higher = stronger DNA binding
How it was run: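 GST-fused DNA-binding domains of P. falciparum, expressed in E. coli, were applied at about 25 μg on average for 1 h to an Agilent 4 × 180k array of primer-extended double-stranded 36-bp intergenic genomic probes and negative controls. Binding intensity is the highest Masliner-normalised natural-log median intensity across replicate spots of either probe orientation, measured with Alexa488 anti-GST antibody and a 488 nm scan.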

Sequence	gcPBM binding intensity (ln)
AAAATATTTCATATATGTACTTAAAAAAAAAAAAAA [XGTACX_site5399]	9.34
GAATATATAAGATACACACACAAATTAAATATAAAA [CACACA_site2781]	10.6
CACTTTTCTGGAAAAATTCCCACATTTTTTTATTAA [GTGCAC_negctrl_site322]	9.5
AAAAAAAAAAAAAACACACACACACGCATAAATATA [CACACA_site6217]	11.5
GTACAAAAAAAAATAAAATACATATATATATATATA [GTGCAC_negctrl_site364]	9.47
TCATAAAAACTAATACGTACTTAAAAATATGAACTT [XGTACX_site2939]	9.61
AAAAAAAAGTTGTATTGTACAAAAAAAAAAAAAAAA [XGTACX_site8334]	9.24
GATAAAGTACTTTATACACACAAATATTTATTTATA [CACACA_site7795]	9.8
TCTTCATATAAGAACACATGCAGATTTTTATTATTG [TGCATGCA_site682]	9.67
TTATGTAAAAAAAAAAAAAAAAAAAAAAAAAAAAAA [CACACA_negctrl_site984]	9.05
CATATAATATAATTATGTACATATATAATAATATAC [XGTACX_site5278]	9.71
AAAAAAAAAAAAAAACGTACACATATTATGTTATTT [XGTACX_site5264]	9.75
AAAAAAAAAAAAGAACGTACAAATTAATTTATAGAA [XGTACX_site5584]	9.68
TATTTACAAAAAAAATATAAAAAATATAAAATATAT [CACACA_negctrl_site575]	9.26
TGTATAATATTTGGTGCACACAAATTAACAACTGTT [CACACA_site9245]	10.1
AATATTAAAATAAAAAGTACTTATTTATGTATGTTG [XGTACX_site2682]	9.69
TTTATATAACAACAAAATGGAAATATATATGTATGT [TGCATGCA_negctrl_site98]	9.65
TACACAAATATATACATACACACATATATACGCATA [CACACA_site394]	9.97
TAATATTGACTATATACACACATATATATATATATA [CACACA_site575]	9.8
CAGACATATTAAAAGAGTACATATATATATATATAT [XGTACX_site1158]	10.1
TGTTTATTACTCAGGTGTACTCAATTTTTTTTTTTT [XGTACX_site3470]	9.63
TATTTTTAAAATATAAGTAAAAAAATAATATAAACT [TGCATGCA_negctrl_site283]	9.61

Sequence	gcPBM binding intensity (ln)
AATAAATAAAGAAGTACACACATATATATATATATA [CACACA_site4314]	10.1
AAATGAATAAATAGGTCACACACAAATATATATAAA [CACACA_site8764]	10.6
ATATATATATATATATGTACATATACATATGTGCAA [XGTACX_site5604]	9.78
ATTTATTTTATTTTCACACACAAAAATAAATATCCG [CACACA_site2414]	9.9
ATAAAAAAAAAAAAAAGTACACATATAAAAGTATTG [XGTACX_site8265]	9.6
TAAATAATATCTATCACACACGCATAAATACAGATA [CACACA_site5449]	10.3
ATTCTACCACGCGATATACACACTTGTAGACATCTT [CACACA_site188]	9.95
TATAATGTATGTAGTGCACACCTCTATAATATATTA [CACACA_site8560]	9.85
AAATTTATGTGTGCCTGTACATATCAAAGATTTAAG [XGTACX_site8547]	9.7
CGCAATTAAAATATGTGTCCTCATTTTATAACATTT [XGTACX_site5340]	9.61
TAATTTCTTAGGTATTGTACAAATATTATATGATAT [XGTACX_site256]	9.5
ATAATAAAAAAAATTAGTACATATATAAATATAAAT [XGTACX_site1937]	9.74
ATATATCTATAAAAGGCTTCCCACTTTTTTTGTCAA [TGCATGCA_negctrl_site332]	9.43
AGTACATTTTTGTGTGTGCACTAATATTATATACTT [GTGCAC_site9568]	10
AATAAAATATAATAATTAATATATATATATATATAA [GTGCAC_negctrl_site457]	9.53
TTATGTTGTAAATACACACATACATATACATACACA [CACACA_site733]	9.91
TATGTGAAATAAGGATGTACAATTTTGATTTCCCCA [XGTACX_site8389]	9.57
GTGTACAAAATATGGTAATAAAGTAGTTACATGAAT [CACACA_negctrl_site1775]	9.86
CTAAATTGTTAATAGAGTACATTTGTATAATATAAG [XGTACX_site594]	9.51
TTTTAATAATTTATAAAAAAAAAAAAAAAATAAATA [TGCATGCA_negctrl_site419]	9.36
TTTAATGAAAGAAACACATACGTATCAAAATATATG [TGCATGCA_negctrl_site510]	9.56
TACGTTGTATATTTTTGTACATATTGAATTACAAAA [XGTACX_site5906]	9.54

Sequence	gcPBM binding intensity (ln)
TTCATATGGAATAAAAGTACGTATTAAAACAATTTT [XGTACX_site8742]	9.45
GAACAATATATTTGCACACAAAAAATATATATTTAT [CACACA_site3317]	10.1
GGATAAAAAATATGTACACACATATAGATATCTATA [CACACA_site2693]	9.8
GTTTACATCATTCTGGTGCAAAAAAAAAAAAAAATA	9.45
GAATACTCATTTCTTTGTACATATATATGTGTATTT [XGTACX_site6411]	10
TAGATTTAAAAAAAAAAAAAATTTTTTTTTTTTTTT [TGCATGCA_negctrl_site593]	9.01
ATACAAGTATTAATTACACACTCAAAAAGAAAAAAC [CACACA_site5287]	9.87
AAAGCAAATAATAAGTGTACGGGTCAATATATGCGT [XGTACX_site1519]	10.2
CATATAAACAATAACACACACCTAGGTACATGGAAA [CACACA_site4615]	10.2
CTTTTTAATTTATCGACACACGCATGAATAGAAATT [CACACA_site9112]	9.6
GTTATAAAATATGGCACACAAAATGTAAGTAAATGA [CACACA_site1458]	9.95
ATATATTTTGTTATGGTGCGTAAGAAATATATTCTT [GTGCAC_site9825]	9.59
GATCTTTAAATTTATTGTACATAAATGTATATGTTA [XGTACX_site1107]	9.7
TATCACATATTATGATGTACAAGGATTCTGACTAAT [XGTACX_site1196]	9.52
TTTATTTATCTGAACACATGCAGACAAATAACATAT [TGCATGCA_site929]	9.41
ATTATATATAAACACACACACATGCATGCACATATA [CACACA_site4237]	10.2
CATAAACTTTATAACACACACTTATAAATATAAATA [CACACA_site6646]	10.2
ATATCTATAATAAACACACACATATACCTATAGGTA [CACACA_site7596]	10.1
GGGCATATAATATAAAGTACAGGACTATAAAAATAT [XGTACX_site4481]	9.57
TATTATATGTATTGCACACCTTCAACAACTACTTCT [CACACA_site655]	9.97
ATTGTGCACTTATATGCACACATTTTAGTTTTTTTT [CACACA_site2028]	9.89
TATATATTATAAAATAGTACACAGAATTTAAATATA [XGTACX_site100]	9.57

Sequence	gcPBM binding intensity (ln)
TATATATAGAAACACACACACATATATATATATTTT [CACACA_site2540]	10.5
TTGTTGATTGTTATTTATCATTAGATGTAAAATATG [CACACA_negctrl_site927]	9.6
TCTTTTAAACAGTACACACACACATATATATATATA [CACACA_site924]	10.7
AATATTTTTTTATAAACACACATATAAATAAATATA [CACACA_site7622]	9.51
TTATGAAATAGAATAACACACATATTTATATATGTG [CACACA_site2050]	9.65
CATAGAATAATTTATTGTACGTGCATGCTATTTTTT [XGTACX_site8984]	9.78
TATACATTTTTATAAAGTACACAAAAATAAATATAA [XGTACX_site1647]	9.59
ATTAAATATATGATGTGTACATATTCGTGTATGTTT [XGTACX_site2141]	9.75
AAACAGAATACATATACACACATACAAAAAAGTGCA [CACACA_site8235]	10.1
AAAATAAATTTTTATGTTATATATACAATTTCTCTA [CACACA_negctrl_site1760]	9.37
TATAATATTTATATAACACACATATATATTTATTTA [CACACA_site280]	9.67
AATGCTATCTTCTTATTTTTCATACACAACATGAAC [CACACA_negctrl_site1809]	9.72
TATTTTTTTAAAAATACACACATAAAATCATGAAAA [CACACA_site1085]	9.55
TTTTTTTATATTTTTAGTACACATTGGTATATATAT [XGTACX_site4114]	9.78
ATATATATATGTCAAAGTACTAAAAATATATACATA [XGTACX_site3397]	9.72
AACATTTTAAATTATACACACATTTTGAATATATAT [CACACA_site3470]	9.74
TGTTGTTGTAATTATTGTACGTTATGCGATTATTAT [XGTACX_site7005]	9.78
TATACACCCAGACACACACACACACCCAAAAAAAAA [CACACA_site497]	10.9
TAATGTTACACAAACTTTTCATTCTTTTTAATAAAT [TGCATGCA_negctrl_site331]	9.43
ATATAATTATAAAATAAACACACATATATATTTATA [CACACA_site8039]	9.91
TTATTTATTTATAATTGTACATTGCAAATGAATTTA [XGTACX_site4083]	9.25
ATATATATATATATATGTACATAGAGAAGTATCTTT [XGTACX_site4737]	9.81
